Source: a compilation of properties of binary mixtures (doi:10.1007/s10953-018-0732-1)
Some of these densities may be calculated back from excess volumes.

Test: xn = mol fraction of the nth substance listed
Settings: 101.3 kPa

For `c1c[nH]cn1` + CC(C)C[P+](C)(CC(C)C)CC(C)C.Cc1ccc(S(=O)(=O)[O-])cc1, the mass density (313.08 K, x2 = 0.5) was 1067 kg/m3, the mass density (323.06 K, x2 = 0.5) was 1061 kg/m3 and the mass density (333.12 K, x2 = 0.5) was 1054 kg/m3. The mass density (343.12 K, x2 = 0.5) was 1048 kg/m3 and the mass density (353.1 K, x2 = 0.5) was 1042 kg/m3.
Work on `c1c[nH]cn1` + CCCC[N+]1(C)CCCC1.O=S(=O)([N-]S(=O)(=O)C(F)(F)F)C(F)(F)F yielded a mass density (323.05 K, x2 = 0.5) of 1323 kg/m3, a mass density (333.08 K, x2 = 0.5) of 1314 kg/m3 and a mass density (343.06 K, x2 = 0.5) of 1305 kg/m3. The mass density (353.1 K, x2 = 0.5) was 1297 kg/m3.
`c1c[nH]cn1` + CCCCCC[N+]1(C)CCCC1.O=S(=O)([N-]S(=O)(=O)C(F)(F)F)C(F)(F)F gave a mass density (323.09 K, x2 = 0.5) of 1279 kg/m3, a mass density (343.09 K, x2 = 0.5) of 1262 kg/m3 and a mass density (353.13 K, x2 = 0.5) of 1254 kg/m3.
For `CCCC[P+](CCCC)(CCCC)CCCC.CS(=O)(=O)[O-]` + c1c[nH]cn1, the mass density (303.05 K, x1 = 0.5) was 1018 kg/m3, the mass density (323.15 K, x1 = 0.5) was 1005 kg/m3 and the mass density (333.05 K, x1 = 0.5) was 999 kg/m3. For the same molecule, the mass density (343.05 K, x1 = 0.5) was 992 kg/m3.
